Test results taken from the supplement of paper PMC4967469.

Tests used:
Assay in all cases: Viability of human cancer cell lines after 72 h of drug (GDSC screen)
XMD15-27 = compound: C=CC(=O)Nc1ccc(C(=O)c2sc(Nc3ccc(N4CCN(C)CC4)cc3OC)nc2N)cc1 [XMD15-27]; settings: top dose 10.24 µM; top dose inferred
Procedure: (§1)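 Human cancer cell lines in 384-well plates, medium with 10% serum, drug for 72 h over a 256-fold dose range (nine 2-fold or five 4-fold steps up to the top dose). Adherent lines were fixed and stained with the nucleic acid dye Syto60, suspension lines read with resazurin; signal relative to control wells, capped at 0 and 100%. One two-parameter sigmoid per drug and line, fitted in a mixed model over all curves with the slope shared within a line.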

SL 0101-1 = compound: CC(=O)O[C@@H]1[C@@H](OC(C)=O)[C@@H](O)[C@H](Oc2c(-c3ccc(O)cc3)oc3cc(O)cc(O)c3c2=O)O[C@H]1C [SL 0101-1]; settings: top dose 10 µM; top dose inferred
Procedure: as §1

AS605240 = compound: O=C1NC(=O)/C(=C\c2ccc3nccnc3c2)S1 [AS605240]; settings: top dose inferred
Procedure: as §1

| Cell Line | AUC (XMD15-27) | IC50 (XMD15-27) [µM] | AUC (SL 0101-1) | IC50 (SL 0101-1) [µM] | AUC (AS605240) | IC50 (AS605240) [µM] |
| --- | --- | --- | --- | --- | --- | --- |
| 786-0 (kidney, adherent) | 0.971 | > 10.2 | 0.976 | > 10 |  |  |
| A172 (glioma, adherent) | 0.983 | > 10.2 | 0.987 | > 10 |  |  |
| A673 (rhabdomyosarcoma, adherent) | 0.988 | > 10.2 | 0.974 | > 10 |  |  |
| AGS (stomach, adherent) | 0.99 | > 10.2 | 0.989 | > 10 |  |  |
| BCPAP (thyroid, adherent) | 0.989 | > 10.2 | 0.985 | > 10 |  |  |
| BHY (head and neck, adherent) | 0.978 | > 10.2 | 0.944 | > 10 |  |  |
| BPH-1 (prostate, adherent) | 0.976 | > 10.2 | 0.977 | > 10 |  |  |
| BxPC-3 (pancreas, adherent) | 0.982 | > 10.2 | 0.979 | > 10 |  |  |
| CAL-54 (kidney, adherent) | 0.985 | > 10.2 | 0.927 | > 10 |  |  |
| CAL-62 (thyroid, adherent) | 0.987 | > 10.2 | 0.967 | > 10 |  |  |
| CFPAC-1 (pancreas, adherent) | 0.982 | > 10.2 | 0.972 | > 10 |  |  |
| CHP-134 (neuroblastoma, suspension) | 0.98 | > 10.2 | 0.783 | 5.48 |  |  |
| CHSA0011 (chondrosarcoma, adherent) | 0.974 | > 10.2 | 0.971 | > 10 |  |  |
| ChaGo-K-1 (non-small cell lung carcinoma, adherent) | 0.982 | > 10.2 | 0.944 | > 10 |  |  |
| ES3 (Ewing sarcoma, adherent) | 0.961 | > 10.2 | 0.973 | > 10 |  |  |
| GAMG (glioma, adherent) | 0.985 | > 10.2 | 0.955 | > 10 |  |  |
| H2591 (mesothelioma, adherent) | 0.982 | > 10.2 | 0.974 | > 10 |  |  |
| H-EMC-SS (chondrosarcoma, adherent) | 0.977 | > 10.2 | 0.981 | > 10 |  |  |
| HCC1806 (breast, adherent) | 0.98 | > 10.2 | 0.947 | > 10 |  |  |
| HCC1954 (breast, adherent) | 0.969 | > 10.2 | 0.816 | 6.72 |  |  |
| HCT-116 (large intestine, adherent) | 0.971 | > 10.2 | 0.965 | > 10 |  |  |
| HLE (liver, adherent) | 0.989 | > 10.2 | 0.985 | > 10 |  |  |

| Cell Line | AUC (XMD15-27) | IC50 (XMD15-27) [µM] | AUC (SL 0101-1) | IC50 (SL 0101-1) [µM] | AUC (AS605240) | IC50 (AS605240) [µM] |
| --- | --- | --- | --- | --- | --- | --- |
| SKM-1 (haematopoietic neoplasm, suspension) |  |  | 0.837 | 7.69 |  |  |
| TALL-1 (T-cell lymphoblastic leukaemia, suspension, top dose 20 µM) |  |  |  |  | 0.964 | > 20 |
| TC-71 (Ewing sarcoma, adherent, top dose 20 µM) |  |  |  |  | 0.85 | 11.4 |
| TCCSUP (bladder, adherent, top dose 20 µM) |  |  |  |  | 0.938 | > 20 |
| TE-1 (oesophagus, adherent, top dose 20 µM) |  |  |  |  | 0.871 | > 20 |
| TE-4 (oesophagus, adherent, top dose 20 µM) |  |  |  |  | 0.954 | > 20 |
| TE-5 (oesophagus, adherent, top dose 20 µM) |  |  |  |  | 0.96 | > 20 |
| TE-6 (oesophagus, adherent, top dose 20 µM) |  |  |  |  | 0.965 | > 20 |
| TE-8 (oesophagus, adherent, top dose 20 µM) |  |  |  |  | 0.954 | > 20 |
| TE-9 (oesophagus, adherent, top dose 20 µM) |  |  |  |  | 0.959 | > 20 |
| TE-10 (oesophagus, adherent, top dose 20 µM) |  |  |  |  | 0.903 | > 20 |
| TE-11 (oesophagus, adherent, top dose 20 µM) |  |  |  |  | 0.979 | > 20 |
| TE-12 (oesophagus, suspension, top dose 20 µM) |  |  |  |  | 0.88 | > 20 |
| TE-15 (oesophagus, suspension, top dose 20 µM) |  |  |  |  | 0.567 | 1.95 |
| TE-441-T (rhabdomyosarcoma, adherent, top dose 20 µM) |  |  |  |  | 0.889 | > 20 |
| TGBC1TKB (biliary tract, adherent, top dose 20 µM) |  |  |  |  | 0.983 | > 20 |
| TGBC11TKB (stomach, adherent, top dose 20 µM) |  |  |  |  | 0.974 | > 20 |
| TGBC24TKB (biliary tract, adherent, top dose 20 µM) |  |  |  |  | 0.987 | > 20 |
| TGW (neuroblastoma, adherent, top dose 20 µM) |  |  |  |  | 0.794 | 7.76 |
| THP-1 (acute myeloid leukaemia, suspension, top dose 20 µM) |  |  |  |  | 0.589 | 2.14 |
| TK10 (kidney, adherent, top dose 20 µM) |  |  |  |  | 0.953 | > 20 |
| TK (B-cell lymphoma, suspension, top dose 20 µM) |  |  |  |  | 0.881 | 17.7 |

| Cell Line | AUC (XMD15-27) | IC50 (XMD15-27) [µM] | AUC (SL 0101-1) | IC50 (SL 0101-1) [µM] | AUC (AS605240) | IC50 (AS605240) [µM] |
| --- | --- | --- | --- | --- | --- | --- |
| TMK-1 (stomach, adherent, top dose 20 µM) |  |  |  |  | 0.978 | > 20 |
| TOV-21G (ovary, adherent, top dose 20 µM) |  |  |  |  | 0.946 | > 20 |
| TOV-112D (ovary, adherent, top dose 20 µM) |  |  |  |  | 0.764 | 7.29 |
| TT2609-C02 (thyroid, adherent, top dose 20 µM) |  |  |  |  | 0.905 | > 20 |
| TT (thyroid, adherent, top dose 20 µM) |  |  |  |  | 0.973 | > 20 |
| TUR (B-cell lymphoma, suspension, top dose 20 µM) |  |  |  |  | 0.924 | > 20 |
| TYK-nu (ovary, adherent, top dose 20 µM) |  |  |  |  | 0.902 | > 20 |
| U031 (kidney, adherent, top dose 20 µM) |  |  |  |  | 0.893 | > 20 |
| U251 (glioma, adherent, top dose 20 µM) |  |  |  |  | 0.873 | 17.8 |
| U-2-OS (osteosarcoma, adherent, top dose 20 µM) |  |  |  |  | 0.978 | > 20 |
| U-87-MG (glioma, adherent, top dose 20 µM) |  |  |  |  | 0.957 | > 20 |
| U-118-MG (glioma, adherent, top dose 20 µM) |  |  |  |  | 0.985 | > 20 |
| U-698-M (B-cell leukaemia, suspension, top dose 20 µM) |  |  |  |  | 0.938 | > 20 |
| UACC-62 (melanoma, adherent, top dose 20 µM) |  |  |  |  | 0.691 | 4.26 |
| UACC-257 (melanoma, adherent, top dose 20 µM) |  |  |  |  | 0.469 | 1.01 |
| UACC-812 (breast, adherent, top dose 20 µM) |  |  |  |  | 0.927 | > 20 |
| UACC-893 (breast, adherent, top dose 20 µM) |  |  |  |  | 0.84 | > 20 |
| UM-UC-3 (bladder, adherent, top dose 20 µM) |  |  |  |  | 0.873 | 17.2 |
| UMC-11 (lung carcinoid, adherent, top dose 20 µM) |  |  |  |  | 0.937 | > 20 |
| UWB1.289 (ovary, adherent, top dose 20 µM) |  |  |  |  | 0.934 | > 20 |
| VA-ES-BJ (soft tissue, adherent, top dose 20 µM) |  |  |  |  | 0.942 | > 20 |
| VAL (B-cell lymphoma, suspension, top dose 20 µM) |  |  |  |  | 0.871 | 19 |

| Cell Line | AUC (XMD15-27) | IC50 (XMD15-27) [µM] | AUC (SL 0101-1) | IC50 (SL 0101-1) [µM] | AUC (AS605240) | IC50 (AS605240) [µM] |
| --- | --- | --- | --- | --- | --- | --- |
| VCaP (prostate, adherent, top dose 20 µM) |  |  |  |  | 0.679 | 4.04 |
| VM-CUB-1 (bladder, adherent, top dose 20 µM) |  |  |  |  | 0.988 | > 20 |
| VMRC-MELG (melanoma, adherent, top dose 20 µM) |  |  |  |  | 0.974 | > 20 |
| VMRC-RCW (kidney, adherent, top dose 20 µM) |  |  |  |  | 0.932 | > 20 |
| VMRC-RCZ (kidney, adherent, top dose 20 µM) |  |  |  |  | 0.909 | > 20 |
| WIL2-NS (lymphoid neoplasm, suspension, top dose 20 µM) |  |  |  |  | 0.582 | 2.01 |
| WM278 (melanoma, adherent, top dose 20 µM) |  |  |  |  | 0.793 | 10.5 |
| WM793B (melanoma, adherent, top dose 20 µM) |  |  |  |  | 0.949 | > 20 |
| WM1552C (melanoma, adherent, top dose 20 µM) |  |  |  |  | 0.836 | 13.4 |
| WM-115 (melanoma, adherent, top dose 20 µM) |  |  |  |  | 0.832 | 17 |
| WSU-DLCL2 (B-cell lymphoma, suspension, top dose 20 µM) |  |  |  |  | 0.942 | > 20 |
| WSU-NHL (lymphoid neoplasm, suspension, top dose 20 µM) |  |  |  |  | 0.725 | 4.95 |
| YAPC (pancreas, adherent, top dose 20 µM) |  |  |  |  | 0.948 | > 20 |
| YH-13 (glioma, adherent, top dose 20 µM) |  |  |  |  | 0.92 | > 20 |
| YKG-1 (glioma, adherent, top dose 20 µM) |  |  |  |  | 0.914 | > 20 |
| YMB-1-E (breast, adherent, top dose 20 µM) |  |  |  |  | 0.945 | > 20 |
| YT (lymphoid neoplasm, suspension, top dose 20 µM) |  |  |  |  | 0.485 | 1.14 |
| huH-1 (liver, adherent, top dose 20 µM) |  |  |  |  | 0.984 | > 20 |
| no-10 (glioma, adherent, top dose 20 µM) |  |  |  |  | 0.91 | > 20 |
| no-11 (glioma, adherent, top dose 20 µM) |  |  |  |  | 0.838 | 18.7 |

IC50 is the fitted dose that halves viability relative to control wells, and lower means more sensitive; fits outside the tested doses are given as limits. AUC sums up the same curve from the lowest dose to the 256-fold higher top dose; it is 1 without any effect and falls as sensitivity rises. Any top dose called inferred was derived from the fitted curves, not read from the paper.
